From a collection of fitness landscapes (doi:10.1126/science.1257360)
The list shows a part of the results.

B1: PhoQ; a variant is named by its letters at X, in order, P23837 (parent)
chain: MKKLLRLFFPLSLRVRFLLATAAVVLVLSLAYGMVALIGYSVSFDKTTFRLLRGESNLFYTLAKWENNKLHVELPENIDKQSPTMTLIYDENGQLLWAQRDVPWLMKMIQPDWLKSNGFHEIEADVNDTSLLLSGDHSIQQQLQEVREDDDDAEMTHSVAVNVYPATSRMPKLTIVVVDTIPVELKSSYMVWSWFIYVLSANLLLVIPLLWVAAWWSLRPIEALAKEVRELEEHNRELLNPATTRELTSLVRNLNRLLKSERERYDKYRTTLTDLTHSLKTPLXXLQXXLRSLRSEKMSVSDAEPVMLEQISRISQQIGYYLHRASMRGGTLLSRELHPVAPLLDNLTSALNKVYQRKGVNISLDISPEISFVGEQNDFVEVMGNVLDNACKYCLEFVEISARQTDEHLYIVVEDDGPGIPLSKREVIFDRGQRVDTLRPGQGVGLAVAREITEQYEGKIVAGESMLGGARMEVIFGRQHSAPKDE

Variants of: B1
Experiment: enrichment ratio after two sorts for PhoP signalling (ratio (wild type AVST 3.29)); higher = more functional
Details: with PhoP (E. coli)

| Variant | enrichment ratio |
| --- | --- |
| ASNW | ≤ 0.25 |
| SQHS | ≤ 0.25 |
| KCKG | ≤ 0.25 |
| DGTG | ≤ 0.25 |
| RIFC | ≤ 0.25 |
| ATSE | 2.13 |
| HVTM | ≤ 0.25 |
| VHHE | ≤ 0.25 |
| DIMG | ≤ 0.25 |
| FTLF | 8.01 |
| KSNN | ≤ 0.25 |
| VCDE | ≤ 0.25 |
| RCYT | ≤ 0.25 |
| TQYY | 4.95 |
| DHED | ≤ 0.25 |
| MRAT | ≤ 0.25 |
| YCPD | ≤ 0.25 |
| NGSS | ≤ 0.25 |
| HPCI | ≤ 0.25 |
| AYGC | ≤ 0.25 |
| DFHS | ≤ 0.25 |
| GGIL | 3.71 |
| YWRM | ≤ 0.25 |
| MIAW | ≤ 0.25 |

| Variant | enrichment ratio |
| --- | --- |
| PRCN | ≤ 0.25 |
| QWFA | ≤ 0.25 |
| ATGC | ≤ 0.25 |
| MWIN | ≤ 0.25 |
| LLIA | ≤ 0.25 |
| TPGI | ≤ 0.25 |
| PFWG | ≤ 0.25 |
| DHNM | ≤ 0.25 |
| LPET | ≤ 0.25 |
| LWWG | ≤ 0.25 |
| RQLV | ≤ 0.25 |
| IFTE | ≤ 0.25 |
| FAEK | ≤ 0.25 |
| LTWT | ≤ 0.25 |
| YSQA | ≤ 0.25 |
| GKVF | ≤ 0.25 |
| HERY | ≤ 0.25 |
| SCMN | 7.82 |
| DVDN | ≤ 0.25 |
| VYFD | ≤ 0.25 |
| ANAD | ≤ 0.25 |
| EGFW | ≤ 0.25 |
| VPCL | ≤ 0.25 |
| NIVD | ≤ 0.25 |

| Variant | enrichment ratio |
| --- | --- |
| PINA | ≤ 0.25 |
| HCLM | ≤ 0.25 |
| MTPI | ≤ 0.25 |
| YVIN | ≤ 0.25 |
| MLGA | ≤ 0.25 |
| LKKW | ≤ 0.25 |
| DIGF | ≤ 0.25 |
| TQYA | 2.28 |
| LDHE | ≤ 0.25 |
| HISD | ≤ 0.25 |
| VTID | ≤ 0.25 |
| FQFD | ≤ 0.25 |
| TSAI | 16.9 |
| MRPE | ≤ 0.25 |
| RHDI | ≤ 0.25 |
| SQDM | ≤ 0.25 |
| ADSQ | ≤ 0.25 |
| LWAS | ≤ 0.25 |
| YADQ | ≤ 0.25 |
| KSKP | ≤ 0.25 |
| LYSR | ≤ 0.25 |
| IKIH | ≤ 0.25 |
| EKST | ≤ 0.25 |
| YKLI | ≤ 0.25 |

| Variant | enrichment ratio |
| --- | --- |
| PRVE | ≤ 0.25 |
| LMGA | ≤ 0.25 |
| MLWA | ≤ 0.25 |
| LSQW | ≤ 0.25 |
| DFVR | ≤ 0.25 |
| MYRI | ≤ 0.25 |
| WSMT | ≤ 0.25 |
| YQWA | ≤ 0.25 |
| VWAT | ≤ 0.25 |
| KEWS | ≤ 0.25 |
| VFMM | ≤ 0.25 |
| TFEH | ≤ 0.25 |
| RTFG | ≤ 0.25 |
| VILP | ≤ 0.25 |
| YLIV | ≤ 0.25 |
| AGQN | ≤ 0.25 |
| HLNH | ≤ 0.25 |
| SIAW | 16.5 |
| PHDP | ≤ 0.25 |
| KTQC | ≤ 0.25 |
| RHSF | ≤ 0.25 |
| DWLI | ≤ 0.25 |
| EILI | ≤ 0.25 |
| SKRL | ≤ 0.25 |

| Variant | enrichment ratio |
| --- | --- |
| DEYV | ≤ 0.25 |
| SICD | 4.76 |
| FDAM | ≤ 0.25 |
| IYFP | ≤ 0.25 |
| PRYM | ≤ 0.25 |
| SYSF | ≤ 0.25 |
| PNNY | ≤ 0.25 |
| FFEV | ≤ 0.25 |
| WHSM | ≤ 0.25 |
| WIMG | ≤ 0.25 |
| LLWI | ≤ 0.25 |
| PRRL | ≤ 0.25 |
| TRTV | 9.35 |
| LLCH | ≤ 0.25 |
| KTGE | ≤ 0.25 |
| TKLW | ≤ 0.25 |
| SVYH | 0.421 |
| FSNS | ≤ 0.25 |
| THLK | ≤ 0.25 |
| MVYV | ≤ 0.25 |
| IQAE | ≤ 0.25 |
| LGLI | 7.51 |
| VFIL | ≤ 0.25 |
| AWMN | ≤ 0.25 |

| Variant | enrichment ratio |
| --- | --- |
| WQAY | ≤ 0.25 |
| KHPS | ≤ 0.25 |
| QTNS | 0.432 |
| NRMC | ≤ 0.25 |
| RCFH | ≤ 0.25 |
| HGKY | ≤ 0.25 |
| RNEI | ≤ 0.25 |
| RDWK | ≤ 0.25 |
| WRNR | ≤ 0.25 |
| MLFA | ≤ 0.25 |
| LEHH | ≤ 0.25 |
| AWEV | ≤ 0.25 |
| NHLW | ≤ 0.25 |
| SWYA | ≤ 0.25 |
| AERT | ≤ 0.25 |
| LYIV | ≤ 0.25 |
| GPHT | ≤ 0.25 |
| YHIN | ≤ 0.25 |
| EQYY | ≤ 0.25 |
| HQSF | ≤ 0.25 |
| IHNE | ≤ 0.25 |
| EIAP | ≤ 0.25 |
| LCIY | ≤ 0.25 |
| VKMR | ≤ 0.25 |

| Variant | enrichment ratio |
| --- | --- |
| MVRI | ≤ 0.25 |
| KDDR | ≤ 0.25 |
| DTWT | ≤ 0.25 |
| KCRG | ≤ 0.25 |
| VLPN | ≤ 0.25 |
| QSNW | ≤ 0.25 |
| LCVI | ≤ 0.25 |
| VGWV | ≤ 0.25 |
| TVAI | 3.37 |
| HYFS | ≤ 0.25 |
| QSDL | 11 |
| LSID | ≤ 0.25 |
| IEAY | ≤ 0.25 |
| MDYS | ≤ 0.25 |
| VYRW | ≤ 0.25 |
| FTYH | ≤ 0.25 |
| DYKH | ≤ 0.25 |
| MNTC | ≤ 0.25 |
| APFR | ≤ 0.25 |
| QGTI | 3 |
| LTPK | ≤ 0.25 |
| TWYG | ≤ 0.25 |
| YWFL | ≤ 0.25 |
| FVIK | ≤ 0.25 |

| Variant | enrichment ratio |
| --- | --- |
| MFWS | ≤ 0.25 |
| QSPG | ≤ 0.25 |
| MNGI | 5.05 |
| RSTR | ≤ 0.25 |
| ARMV | ≤ 0.25 |
| DYTY | ≤ 0.25 |
| GGWE | ≤ 0.25 |
| IGSI | ≤ 0.25 |
| RSAE | ≤ 0.25 |
| QDHH | ≤ 0.25 |
| PCNS | ≤ 0.25 |
| YTGF | ≤ 0.25 |
| GGNG | ≤ 0.25 |
| HRTW | ≤ 0.25 |
| WSCH | ≤ 0.25 |
| HWQV | ≤ 0.25 |
| YKAT | ≤ 0.25 |
| FFYH | ≤ 0.25 |
| ELER | ≤ 0.25 |
| YQNT | ≤ 0.25 |
| IVSC | ≤ 0.25 |
| TGLD | 7.18 |
| WMKS | ≤ 0.25 |
| HDFM | ≤ 0.25 |

| Variant | enrichment ratio |
| --- | --- |
| GWST | ≤ 0.25 |
| MERV | ≤ 0.25 |
| GHPY | ≤ 0.25 |
| YSKT | ≤ 0.25 |
| KGNP | ≤ 0.25 |
| ECKP | ≤ 0.25 |
| HNSS | ≤ 0.25 |
| IHVW | ≤ 0.25 |
| EFKK | ≤ 0.25 |
| NKQM | ≤ 0.25 |
| YPVI | ≤ 0.25 |
| MNKK | ≤ 0.25 |
| GLNK | ≤ 0.25 |
| THKY | ≤ 0.25 |
| EDWG | ≤ 0.25 |
| MMNW | ≤ 0.25 |
| QYMY | ≤ 0.25 |
| MCWP | ≤ 0.25 |
| IQIA | ≤ 0.25 |
| EQDM | ≤ 0.25 |
| WRYP | ≤ 0.25 |
| QERY | ≤ 0.25 |
| ITND | ≤ 0.25 |
| YDTA | ≤ 0.25 |

| Variant | enrichment ratio |
| --- | --- |
| RKLR | ≤ 0.25 |
| AFFK | ≤ 0.25 |
| RPVL | ≤ 0.25 |
| TSMI | 23 |
| LNCK | ≤ 0.25 |
| MWPK | ≤ 0.25 |
| IIEA | ≤ 0.25 |
| EAYG | ≤ 0.25 |
| RGWN | ≤ 0.25 |
| LMMI | ≤ 0.25 |
| MLAI | 4.36 |
| NSSE | ≤ 0.25 |
| VQIQ | 0.272 |
| VLTL | 3.19 |
| KRTG | ≤ 0.25 |
| IVYM | ≤ 0.25 |
| PLNW | ≤ 0.25 |
| QDKL | ≤ 0.25 |
| REPV | ≤ 0.25 |
| TCDL | 3.52 |
| IVIC | ≤ 0.25 |
| KQPF | ≤ 0.25 |
| FIVK | ≤ 0.25 |
| YHSV | ≤ 0.25 |

| Variant | enrichment ratio |
| --- | --- |
| VYHH | ≤ 0.25 |
| WSHE | ≤ 0.25 |
| INDN | ≤ 0.25 |
| FRDY | ≤ 0.25 |
| YNVI | ≤ 0.25 |
| IDVL | ≤ 0.25 |
| LLYE | ≤ 0.25 |
| DMSE | ≤ 0.25 |
| WVFP | ≤ 0.25 |
| GREA | ≤ 0.25 |
| SGCT | 11.1 |
| ACHQ | ≤ 0.25 |
| VHCI | ≤ 0.25 |
| SCRT | ≤ 0.25 |
| FFTE | ≤ 0.25 |
| NYYS | ≤ 0.25 |
| ESVL | ≤ 0.25 |
| PDIS | ≤ 0.25 |
| HIRN | ≤ 0.25 |
| NDNY | ≤ 0.25 |
| GRNK | ≤ 0.25 |
| PQGG | ≤ 0.25 |
| QVVH | ≤ 0.25 |
| ALEK | ≤ 0.25 |

| Variant | enrichment ratio |
| --- | --- |
| SYNE | ≤ 0.25 |
| FQCY | ≤ 0.25 |
| GMES | ≤ 0.25 |
| LKVV | ≤ 0.25 |
| GWMY | ≤ 0.25 |
| MPAK | ≤ 0.25 |
| GLQH | ≤ 0.25 |
| RKYL | ≤ 0.25 |
| FNPA | ≤ 0.25 |
| VFQC | ≤ 0.25 |
| FKMY | ≤ 0.25 |
| IQIV | ≤ 0.25 |
| DQIT | ≤ 0.25 |
| VAKK | ≤ 0.25 |
| RSKT | ≤ 0.25 |
| EFVW | ≤ 0.25 |
| KSSN | ≤ 0.25 |
| PAVY | ≤ 0.25 |
| RQWT | ≤ 0.25 |
| AWEA | ≤ 0.25 |
| YHGS | ≤ 0.25 |
| THVH | 0.294 |
| AHEI | ≤ 0.25 |
| QMFK | ≤ 0.25 |

| Variant | enrichment ratio |
| --- | --- |
| NMRH | ≤ 0.25 |
| YNNF | ≤ 0.25 |
| VNMV | 7.5 |
| EPVG | ≤ 0.25 |
| NQNN | ≤ 0.25 |
| GQDP | ≤ 0.25 |
| KRAW | ≤ 0.25 |
| DFPI | ≤ 0.25 |
| INSA | ≤ 0.25 |
| PTDV | ≤ 0.25 |
| GLMM | 1.41 |
| RRYY | ≤ 0.25 |
| WWHN | ≤ 0.25 |
| NYKE | ≤ 0.25 |
| PQLP | ≤ 0.25 |
| NELL | ≤ 0.25 |
| FVFD | ≤ 0.25 |
| KENH | ≤ 0.25 |
